# Experimental data taken from the supplement of paper PMC10498489.
# Among all 2,300 compounds or so, about 330 (14%) showed activity.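 Rule for the calls: active = median modified Z-score above 1.96; inactive = 1.96 or below.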 This is a selection; strong and weak results do not stand in their true shares.
# Tested on: HepG2 Srxn1-GFP reporter cells (+30 nM CDDO-Me)
# Experiment: Srxn1-GFP intensity median modified Z-score relative to plate median; higher = stronger NRF2 / oxidative stress reporter activation, active = hit call of the paper
# Conditions: 10 µM; exposure time: 24h
# In short: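 Each value is the replicate median of a per-plate modified Z-score for GFP intensity in HepG2 Srxn1-GFP BAC reporter cells. The cells (20,000 per well, 96-well plates, three replicate plates) received compound at 10 μM together with an NRF2 activator at 30 nM for 24 h, in ≤0.1% DMSO. Cytoplasmic GFP was quantified per cell from confocal images of formaldehyde-fixed, Hoechst-stained cells, leaving out images with fewer than 100 cells, and scaling used 1.4826 × median absolute deviation.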
row,SMILES,Srxn1-GFP intensity median modified Z-score
1,C/C(=C(/CCOP(=O)(O)O)SC(=O)c1ccccc1)N(C=O)Cc1c[nH]c(C)nc1=N [euspeclibcmpd1052],inactive: 1.09
2,O[C@@H]1[C@@H](O)[C@@H](O)OC[C@H]1O,inactive: 0.871
3,Cc1cc(C)cc(-c2nnc(SCc3csc(Nc4ccccc4)n3)o2)c1,inactive: 0.289
4,CC1(C)CC2C1CCC1(C)OC1CCC2(C)O (stereo not drawn) [euspeclibcmpd1488],inactive: -0.0812
5,CC1=CCc2c(cc3oc(C)cc(=O)c3c2O)OC1 [euspeclibcmpd1616],inactive: 1.89
6,Cc1[nH]c(C)c(Cl)c(=O)c1Cl [euspeclibcmpd744],active: 6.67
7,CN(Cc1cc(Br)cc(Br)c1N)C1CCCCC1 [euspeclibcmpd529],inactive: -0.0923
8,COC(=O)[C@@]1(C)CCC[C@]2(C)c3ccc(O)c(C(C)C)c3CCC12 (stereo partly drawn) [euspeclibcmpd1676],inactive: 1.46
9,OC(CCN1CCCC1)(c1ccccc1)C1CCCCC1 (stereo not drawn) [euspeclibcmpd250],inactive: 1.63
10,CC(C)NCC(O)COc1cccc2[nH]ccc12 (stereo not drawn) [euspeclibcmpd237],inactive: -0.415
11,CC1=C(/C=C/C(C)=C/C=C/C(C)=C/C=C/C=C(C)/C=C/C=C(C)/C=C/C(=O)[C@]2(C)C[C@@H](O)CC2(C)C)C(C)(C)C[C@H](O)C1 [euspeclibcmpd1726],inactive: -0.348
12,CC(C)(C)CC(C)(C)c1ccc(OCCOCC[N+](C)(C)Cc2ccccc2)cc1 [euspeclibcmpd33],active: 9.81
13,Cn1nnc2c(C(N)=O)ncn2c1=O [euspeclibcmpd925],inactive: 0.0618
14,COc1cccc(O)c1O [euspeclibcmpd1624],active: 10.7
15,CCCCOc1ccc(C(=O)CCN2CCCCC2)cc1 [euspeclibcmpd107],active: 3.53
16,C[C@H]1[C@H](OC(=O)CCC(=O)O)O[C@@H]2O[C@]3(C)CC[C@H]4[C@H](C)CC[C@@H]1[C@@]24OO3 [euspeclibcmpd985],active: 11
17,CN(C)CCOC(=O)C(c1ccccc1)C1(O)CCCC1 (stereo not drawn) [euspeclibcmpd78],inactive: -0.348
18,O=C(/C=C/c1ccccc1)c1ccc(O)cc1,active: 4.36
19,O=C(/C=C/c1ccccc1)c1ccc(O)cc1 [euspeclibcmpd1718],active: 12.6
20,O=C(O)c1ccc2c(c1)OCO2 [euspeclibcmpd1566],inactive: -0.239
21,Nc1ccc(C(=O)O)c(O)c1 [euspeclibcmpd1137],inactive: 0.238
22,Nc1ccc(C(=O)O)c(O)c1,inactive: 0.389
23,Nc1ccc(C(=O)O)c(O)c1 [euspeclibcmpd2218],inactive: 0.181
